Screen size: about 310,000 compounds; about 2,200 (0.71%) showed an effect of 50% or more. Effects have a minus sign here. Some of the results follow.
molecular target: human ether-à-go-go-related gene (hERG) potassium channel (human, UniProt Q12809); experiment: primary screen, population patch clamp on CHO cells stably expressing hERG
Sequence (Q12809 whole entry, looked up): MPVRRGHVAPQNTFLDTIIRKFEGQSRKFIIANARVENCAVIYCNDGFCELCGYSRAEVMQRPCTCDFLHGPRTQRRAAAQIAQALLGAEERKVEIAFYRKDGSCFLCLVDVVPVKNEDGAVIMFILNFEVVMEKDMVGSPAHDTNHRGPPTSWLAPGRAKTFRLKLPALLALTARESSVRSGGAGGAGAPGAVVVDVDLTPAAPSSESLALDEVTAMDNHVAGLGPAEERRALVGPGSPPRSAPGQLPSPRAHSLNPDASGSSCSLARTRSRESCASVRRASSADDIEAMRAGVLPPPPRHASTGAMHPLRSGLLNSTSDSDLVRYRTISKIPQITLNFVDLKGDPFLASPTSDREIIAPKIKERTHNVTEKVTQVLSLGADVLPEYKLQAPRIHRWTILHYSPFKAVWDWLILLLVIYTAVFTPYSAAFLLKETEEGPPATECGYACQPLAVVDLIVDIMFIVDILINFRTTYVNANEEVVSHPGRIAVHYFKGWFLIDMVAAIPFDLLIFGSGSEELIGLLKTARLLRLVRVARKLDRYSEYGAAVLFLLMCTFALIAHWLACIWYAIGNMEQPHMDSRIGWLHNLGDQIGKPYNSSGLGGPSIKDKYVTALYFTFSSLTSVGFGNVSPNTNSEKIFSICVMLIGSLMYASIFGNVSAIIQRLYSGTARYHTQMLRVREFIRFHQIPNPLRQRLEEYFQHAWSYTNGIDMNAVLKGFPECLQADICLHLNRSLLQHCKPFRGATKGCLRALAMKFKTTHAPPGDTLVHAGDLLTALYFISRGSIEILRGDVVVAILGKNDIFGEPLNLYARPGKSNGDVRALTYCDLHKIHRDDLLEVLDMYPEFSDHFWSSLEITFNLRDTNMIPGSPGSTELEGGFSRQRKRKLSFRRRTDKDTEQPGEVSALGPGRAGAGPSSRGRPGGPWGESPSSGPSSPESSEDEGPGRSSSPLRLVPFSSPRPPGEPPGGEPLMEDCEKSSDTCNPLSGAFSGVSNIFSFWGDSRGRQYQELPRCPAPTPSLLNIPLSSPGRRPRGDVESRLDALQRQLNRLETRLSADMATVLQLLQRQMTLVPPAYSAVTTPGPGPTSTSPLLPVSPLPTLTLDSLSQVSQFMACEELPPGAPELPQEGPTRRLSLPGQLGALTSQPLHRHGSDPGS

In order of falling “hERG current change (%, negative = inhibition) at 1uM” value:
1. O=C(NCc1nnc2c(C(F)(F)F)cc(Cl)cn12)c1cccnc1  22.6%
2. Cc1c(NC(=O)COC(=O)CSc2ccc(C(N)=O)cc2[N+](=O)[O-])c(=O)n(-c2ccccc2)n1C  17.4%
3. CC(=O)OCCn1c2nc(=O)[nH]c(=O)c-2nc2cc(C)c(C)cc21  16.3%
4. O=c1c2ccccc2c(C=Nc2ccc(S(=O)(=O)N3CCCCC3)cc2)c(O)n1-c1ccc(Cl)cn1  16.1%
5. CCN(CC)C(=O)c1[nH]cnc1C(=O)Nc1ccccc1  15.8%
6. Cc1nn(-c2cc(C(F)(F)F)ccc2Cl)c2nc(C(F)(F)F)[nH]c(=O)c12  14.4%
7. COc1ccc(-n2c(O)c(C=NCc3ccccn3)c3ccccc3c2=O)c(OC)c1  13.5%
8. Cc1c(O)ccc(C(=O)CN2CCN(c3ccccc3)CC2)c1O  13.2%
9. O=C(NCc1ccc2c(c1)OCO2)Nc1ccc2nsnc2c1  13.1%
10. NC(=O)c1c(N)sc2c1CCCCC2  12.3%
11. CCn1c(Sc2ccc(N)cc2Cl)nc2ccccc21  12.3%
12. N/C(=N\OC(=O)c1cc(Br)ccc1Cl)c1ccccn1  11.5%
13. C=CCN(C)NC(=S)Nc1ccccc1  11.2%
14. CCC[n+]1c(C)sc2c(OC)ccc(OC)c21.[I-]  10.9%
15. CCC(CC)NC(=O)Cc1ccc(S(=O)(=O)N2CCOCC2)s1  10.5%
16. Cc1[nH]c(=O)[nH]c(=O)c1CSCC(=O)OCC(=O)c1ccc(Br)cc1  10.2%
17. Cc1ccc(-c2cc(C(=O)Nc3sc4c(c3C(=O)NCc3ccco3)CCC4)[nH]n2)c(O)c1  10%
18. O=C(Nc1ccccc1-c1ccccc1)NC1CCN(CC(=O)N2CCOCC2)CC1  9.68%
19. CCC1OC2(C)OC(=N)C1(C#N)C(C#N)(C#N)C2c1ccccc1 (centres unmarked)  9.48%
20. Clc1ccc(-c2nnc(C3CC3)o2)cc1  9.06%
21. CCn1c(N2CCN(S(=O)(=O)c3ccccc3C(F)(F)F)CC2)nc2ccccc21.Cl  8.63%
22. CC(NC(=O)C12CC3CC(C)(CC(C)(C3)C1)C2)c1ccncc1 (centres unmarked)  8.47%
23. Cc1oc2c(c1C(=O)Nc1cccc3ccccc13)CCCC2  8.17%
24. CCOc1ccc(-n2c(C)nc3cc(C(=O)NCC4CCCO4)ccc32)cc1 (centres unmarked)  7.88%
25. CC1=C(C(N)=O)C(c2cccnc2)n2nc(-c3cccc(C)c3)nc2N1 (centres unmarked)  7.42%
26. Cc1ccc(CN2CCNC(=O)C2CC(=O)N(C)C2CCCCC2)o1 (centres unmarked)  7.39%
27. CC(C)C1Cc2c(C#N)c(N)n(C)c(=S)c2CO1 (centres unmarked)  6.25%
28. Cc1ccc(S(=O)(=O)N2CCCOC2CNC(=O)C(=O)NCc2cccs2)cc1 (centres unmarked)  4.49%
29. NC(=O)C1CCN(CC(=O)Nc2ccccc2N2CCOCC2)CC1  4.12%
30. CCOc1ccc(NC(=S)NN(C)C(=S)Nc2ccc(OCC)cc2)cc1  3.77%
31. COc1ccc(S(=O)(=O)NC2CC(=O)N(c3ccccc3)C2)cc1C (centres unmarked)  3.33%
32. COc1cccc2cc(C(C)=O)oc12  2.49%
33. O=C1CCCN1CCCNC(=S)Nc1ccc(Cl)cc1Cl  -0.0778%
34. CCc1nnc(NC(=O)CSc2nnc(-c3ccoc3C)n2-c2ccc(C)cc2)s1  -1.78%
35. O=C(NCc1cccs1)C1CCC(CNS(=O)(=O)c2ccc(Br)s2)CC1 (centres unmarked)  -2.37%
36. CC(NC(=O)C1CCC(CNc2c(N3CCOCC3)c(=O)c2=O)CC1)c1ccccc1 (centres unmarked)  -2.95%
37. Cc1ccc(-n2nc(-c3ccco3)cc2C(=O)NCc2cccnc2)cc1  -3.39%
38. CCC(CC)NC(=O)CO/N=C/c1ccccc1OC(F)F  -4.9%
39. O=C(NCc1ccc2c(c1)OCO2)C1CCCN1C(=O)Nc1ccc(F)cc1 (centres unmarked)  -7.59%
40. Cc1noc2ncnc(N3CCN(c4ccc(F)cc4)CC3)c12  -8.95%
41. Cc1nnc(NC(=O)C2C3C=CC(O3)C2C(=O)O)s1 (centres unmarked)  -9.85%
42. CCN1C(=NCCc2cccnc2)N[C@@H](c2ccccc2)C(C(=O)OC)=C1C  -16.4%
43. N=c1c(C(=O)NCCN2CCOCC2)cc2c(=O)n3ccccc3nc2n1Cc1ccc(F)cc1  -19.2%
44. O=C(c1ccc(C(F)(F)F)cc1)C1CCCN(C2CCSCC2)C1 (centres unmarked)  -64.4%

From publication PMC4336329 (PLoS ONE, 2015)
